From PubChem BioAssay (NCI)
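Results reflect a 48-hour exposure of cells in 96-well plates to compound at five concentrations. GI50 marks 50% less growth. Definition used: TGI = concentration required for complete inhibition of growth.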

Tested on: NCI-H322M lung
Experiment: NCI tumour cell line growth inhibition, 48 h

CS(=O)(=O)Nc1cc(-c2ccc3ncc(C#N)c(NCc4cccc(F)c4)c3c2)cnc1Cl
GI50: 0.449 µM
TGI: 9.35 µM
